According to the supplement of paper PMC4967469:
The IC50 comes from the fitted curve, where viability falls to half of the control; where the fit passes the top or lowest dose, that dose stands as a limit. For AUC the same curve is integrated over the 256-fold range of doses and scaled to a fraction: 1 means no effect, lower means more sensitive. The top dose, if marked as inferred, was calculated from the reported fits.

Assays:
Assay in all cases: Viability of human cancer cell lines after 72 h of drug (GDSC screen)
XMD14-99 = compound: COc1cc(N2CCN(C)CC2)ccc1Nc1nc(N)c(C(=O)c2c(Cl)cccc2Cl)s1 [XMD14-99]; conditions: top dose 10.24 µM; top dose inferred
Method: (§1)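 Human cancer cell lines in 384-well plates, medium with 10% serum, drug for 72 h over a 256-fold dose range (nine 2-fold or five 4-fold steps up to the top dose). Adherent lines were fixed and stained with the nucleic acid dye Syto60, suspension lines read with resazurin; signal relative to control wells, capped at 0 and 100%. One two-parameter sigmoid per drug and line, fitted in a mixed model over all curves with the slope shared within a line.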

FH535 = compound: Cc1cc([N+](=O)[O-])ccc1NS(=O)(=O)c1cc(Cl)ccc1Cl [FH535]; conditions: top dose 32 µM; top dose inferred
Method: as §1

AT-7519 = compound: O=C(NC1CCNCC1)c1n[nH]cc1NC(=O)c1c(Cl)cccc1Cl [AT-7519]; conditions: top dose 10.24 µM; top dose inferred
Method: as §1

Cell Line | AUC (XMD14-99) | IC50 (XMD14-99) [µM] | AUC (FH535) | IC50 (FH535) [µM] | AUC (AT-7519) | IC50 (AT-7519) [µM]
VAL (B-cell lymphoma, suspension) | 0.922 | > 10.2 | 0.656 | 5.41 | 0.464 | 0.51
BHT-101 (thyroid, adherent) | 0.974 | > 10.2 | 0.676 | 6.29 | 0.931 | > 10.2
MOG-G-CCM (glioma, adherent) | 0.967 | > 10.2 | 0.774 | 14.7 | 0.872 | > 10.2
AGS (stomach, adherent) | 0.988 | > 10.2 | 0.685 | 6.19 | 0.602 | 1.18
SW1088 (glioma, adherent) | 0.981 | > 10.2 | 0.717 | 10 | 0.938 | > 10.2
RH-41 (rhabdomyosarcoma, adherent) | 0.992 | > 10.2 | 0.795 | 12.2 | 0.884 | 7.92
MDA-MB-330 (breast, adherent) | 0.984 | > 10.2 | 0.463 | 1.56 | 0.773 | 4.54
RT4 (bladder, adherent) | 0.987 | > 10.2 | 0.95 | > 32 | 0.557 | 0.922
EFM-19 (breast, adherent) | 0.977 | > 10.2 | 0.635 | 5.73 | 0.758 | 5.4
SW1271 (small cell lung carcinoma, adherent) | 0.965 | > 10.2 | 0.595 | 3.78 | 0.883 | > 10.2
NCI-H1623 (lung adenocarcinoma, adherent) | 0.984 | > 10.2 | 0.898 | > 32 | 0.955 | > 10.2
SK-MEL-30 (melanoma, adherent) | 0.935 | > 10.2 | 0.652 | 5.4 | 0.645 | 1.65
HPAC (pancreas, adherent) | 0.954 | > 10.2 | 0.657 | 6.54 | 0.575 | 1.12
A204 (rhabdomyosarcoma, adherent) | 0.978 | > 10.2 | 0.671 | 6.93 | 0.634 | 1.68
NCI-H2029 (small cell lung carcinoma, adherent) | 0.992 | > 10.2 | 0.869 | 24.7 | 0.645 | 1.54
CP50-MEL-B (melanoma, adherent) | 0.988 | > 10.2 | 0.378 | 0.926 | 0.87 | 9.35
CAL-39 (cervix, adherent) | 0.986 | > 10.2 | 0.544 | 2.64 | 0.84 | 7.41
EW-7 (Ewing sarcoma, semi-adherent) | 0.907 | > 10.2 | 0.777 | 11.3 | 0.449 | 0.473
AsPC-1 (pancreas, adherent) | 0.97 | > 10.2 | 0.778 | 24.4 | 0.931 | > 10.2

Cell Line | AUC (XMD14-99) | IC50 (XMD14-99) [µM] | AUC (FH535) | IC50 (FH535) [µM] | AUC (AT-7519) | IC50 (AT-7519) [µM]
OVTOKO (ovary, adherent) | 0.952 | > 10.2 | 0.682 | 7.49 | 0.862 | > 10.2
K2 (melanoma, adherent) | 0.982 | > 10.2 | 0.414 | 1.09 | 0.906 | > 10.2
NCI-H1568 (lung adenocarcinoma, adherent) | 0.976 | > 10.2 | 0.664 | 6.46 | 0.438 | 0.416
451Lu (melanoma, adherent) | 0.989 | > 10.2 | 0.567 | 3.02 | 0.879 | 9.72
OAW-42 (ovary, adherent) | 0.985 | > 10.2 | 0.537 | 2.54 | 0.855 | 9.25
EFO-27 (ovary, adherent) | 0.976 | > 10.2 | 0.626 | 4.87 | 0.703 | 2.78
LK-2 (lung squamous cell carcinoma, adherent) | 0.968 | > 10.2 | 0.358 | 0.83 | 0.881 | 9.71
Mewo (melanoma, adherent) | 0.979 | > 10.2 | 0.703 | 8.46 | 0.92 | > 10.2
Caov-4 (ovary, adherent) | 0.954 | > 10.2 | 0.872 | > 32 | 0.647 | 1.98
HCC-78 (lung adenocarcinoma, adherent) | 0.967 | > 10.2 | 0.764 | 13.6 | 0.428 | 0.393
G-401 (kidney, adherent) | 0.918 | > 10.2 | 0.399 | 1.02 | 0.65 | 1.75
UM-UC-3 (bladder, adherent) | 0.976 | > 10.2 | 0.472 | 1.68 | 0.864 | 8.03
MDA-MB-231 (breast, adherent) | 0.982 | > 10.2 | 0.775 | 13.4 | 0.733 | 3.11
H2722 (mesothelioma, adherent) | 0.977 | > 10.2 | 0.729 | 10.3 | 0.958 | > 10.2
MDA-MB-453 (breast, adherent) | 0.93 | > 10.2 | 0.72 | 9.09 | 0.736 | 3.3
H290 (mesothelioma, adherent) | 0.988 | > 10.2 | 0.727 | 8.28 | 0.88 | 9.07
KP-2 (pancreas, adherent) | 0.942 | > 10.2 | 0.544 | 2.65 | 0.502 | 0.65
PCI-6A (head and neck, adherent) | 0.987 | > 10.2 | 0.7 | 7.2 | 0.511 | 0.684
NCI-H1993 (lung adenocarcinoma, adherent) | 0.982 | > 10.2 | 0.741 | 12.5 | 0.631 | 1.65
